One data set has as its target CYP2D6 (Homo sapiens, UniProt P10635). The data set is described as follows: Inhibition of human recombinant CYP2D6 expressed in baculovirus infected insect cells using EOMCC as substrate at 10 uM in presence of NADPH by fluorimetric analysis relative to control. In kind it is ADME. The conditions noted are these: probe EOMCC.
In the next data set the test system is Blood. The data set is described as follows: Inhibition of LPS-induced TNFalpha production in human whole blood preincubated with compound for 15 mins followed by LPS addition measured after 2.5 hrs by ELISA. The data set is classed as functional, tissue-based. A general note: ELISA stands for enzyme-linked immunosorbent assay.
The target in data set [1] is Mitogen-activated protein kinase kinase kinase kinase 4 (Homo sapiens) (UniProt O95819). The data set is described as follows: Inhibition of human recombinant HGK at 1 uM using Ulight-FLGFTYVAP as substrate measured after 90 mins in presence of ATP by LANCE assay relative to control. The method in brief:
(§1)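 Kinase panel run by an outside provider (Eurofins Cerep) in a LANCE assay, single test concentration of 1 µM, results as percent inhibition.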

In data set [2] the target is Cyclin-dependent kinase 2 (Homo sapiens) (UniProt P24941). The data set is described as follows: Inhibition of human recombinant CDK2 at 1 uM using Ulight-CFFKNIVTPRTPPPSQGK-amide as substrate incubated for 30 mins in presence of ATP by LANCE assay relative to control. The method in brief:
as §1

A short description of data set [3]: Metabolic stability in human liver microsomes assessed as parent compound remaining after 10 mins by LC-MS analysis relative to control. The data set is classed as ADME, Microsome. The conditions noted are these: read-out: Stability.
Data set [4] is described as follows: Metabolic stability in human liver microsomes assessed as parent compound remaining after 180 mins by LC-MS analysis relative to control. In kind it is ADME, Microsome. To be noted: read-out: Stability.
Data set [5] is described as follows: Plasma concentration in RjOrl:Swiss CD-1 mouse at 10 mg/kg, iv administered as single dose measured after 2 hrs by LC-MS analysis. To be noted: in vivo.
The target in data set [6] is Serine/threonine-protein kinase MARK1 (Homo sapiens) (UniProt Q9P0L2). The data set is described as follows: Inhibition of human recombinant MARK1 at 1 uM using Ulight-RRRSLLE as substrate measured after 30 mins in presence of ATP by LANCE assay relative to control. The method in brief:
as §1
(In TR-FRET formats the signal depends on donor and acceptor labels being close together.)

For data set [7], the target named is cAMP-dependent protein kinase catalytic subunit alpha (Homo sapiens) (UniProt P17612). Briefly: Inhibition of human recombinant PKA at 1 uM using Ulight-RRRSLLE as substrate measured after 10 mins in presence of ATP by LANCE assay relative to control. The procedure, abridged: as §1
For data set [8], the target named is T1, Serine/threonine-protein kinase Chk1 (Homo sapiens) (UniProt O14757).
T1 sequence (whole entry): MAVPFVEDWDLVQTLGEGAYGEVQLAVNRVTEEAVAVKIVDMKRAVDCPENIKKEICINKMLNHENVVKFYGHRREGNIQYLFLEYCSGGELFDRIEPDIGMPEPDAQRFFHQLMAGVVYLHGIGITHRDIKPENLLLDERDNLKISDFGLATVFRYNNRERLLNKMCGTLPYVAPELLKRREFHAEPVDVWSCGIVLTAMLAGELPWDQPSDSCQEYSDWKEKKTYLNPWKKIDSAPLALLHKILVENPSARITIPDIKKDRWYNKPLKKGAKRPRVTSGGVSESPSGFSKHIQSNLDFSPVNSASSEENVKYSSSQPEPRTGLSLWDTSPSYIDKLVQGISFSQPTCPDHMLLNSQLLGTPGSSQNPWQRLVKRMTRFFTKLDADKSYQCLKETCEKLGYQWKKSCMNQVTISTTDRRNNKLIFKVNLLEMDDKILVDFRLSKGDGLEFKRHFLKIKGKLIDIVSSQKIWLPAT
Briefly: Inhibition of human recombinant CHK1 at 1 uM using CREBtide as substrate incubated for 30 mins in presence of ATP by LANCE assay relative to control. The procedure, abridged: as §1

Data set [9] is described as follows: Metabolic stability in human liver microsomes assessed as parent compound remaining after 30 mins by LC-MS analysis relative to control. To be noted: read-out: Stability. In kind it is ADME, Microsome.
The target of data set [10] is Tyrosine-protein kinase Lck (Homo sapiens) (UniProt P06239). The data set is described as follows: Inhibition of human recombinant LCK at 1 uM using Ulight-Poly GAT[EAY(1:1:1)]n as substrate measured after 10 mins in presence of ATP by LANCE assay relative to control. The procedure, abridged:
as §1

In data set [11] the target is Serine/threonine-protein kinase SIK1 (Homo sapiens) (UniProt P57059). Briefly: Inhibition of human recombinant SIK at 1 uM using CREBtide as substrate measured after 90 mins in presence of ATP by LANCE assay relative to control. The method in brief:
as §1

Data set [12] addresses T2, 3-phosphoinositide-dependent protein kinase 1 (Homo sapiens) (UniProt O15530).
T2 sequence (whole entry): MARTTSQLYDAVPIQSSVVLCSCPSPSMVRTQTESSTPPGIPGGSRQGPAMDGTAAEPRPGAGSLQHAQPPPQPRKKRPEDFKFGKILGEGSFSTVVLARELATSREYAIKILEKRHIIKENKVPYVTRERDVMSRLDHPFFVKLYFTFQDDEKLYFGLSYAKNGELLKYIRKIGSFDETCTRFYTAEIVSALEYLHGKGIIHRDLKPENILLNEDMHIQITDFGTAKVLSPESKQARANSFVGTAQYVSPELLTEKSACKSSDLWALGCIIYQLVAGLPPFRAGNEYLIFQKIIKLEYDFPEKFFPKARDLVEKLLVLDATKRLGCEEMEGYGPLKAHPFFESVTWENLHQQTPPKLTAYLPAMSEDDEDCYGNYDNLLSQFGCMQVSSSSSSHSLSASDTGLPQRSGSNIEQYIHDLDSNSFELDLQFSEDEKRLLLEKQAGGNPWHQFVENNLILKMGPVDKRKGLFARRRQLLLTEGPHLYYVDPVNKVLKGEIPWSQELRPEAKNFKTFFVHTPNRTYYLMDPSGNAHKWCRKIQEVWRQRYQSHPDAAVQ
The data set is described as follows: Inhibition of human recombinant PDK1 at 1 uM using Ulight-FLGFTYVAP as substrate measured after 90 mins in presence of ATP by LANCE assay relative to control. The method in brief: as §1

Data set [13] deals with T3, Serine/threonine-protein kinase Sgk1 (Homo sapiens) (UniProt O00141).
T3 sequence (whole entry): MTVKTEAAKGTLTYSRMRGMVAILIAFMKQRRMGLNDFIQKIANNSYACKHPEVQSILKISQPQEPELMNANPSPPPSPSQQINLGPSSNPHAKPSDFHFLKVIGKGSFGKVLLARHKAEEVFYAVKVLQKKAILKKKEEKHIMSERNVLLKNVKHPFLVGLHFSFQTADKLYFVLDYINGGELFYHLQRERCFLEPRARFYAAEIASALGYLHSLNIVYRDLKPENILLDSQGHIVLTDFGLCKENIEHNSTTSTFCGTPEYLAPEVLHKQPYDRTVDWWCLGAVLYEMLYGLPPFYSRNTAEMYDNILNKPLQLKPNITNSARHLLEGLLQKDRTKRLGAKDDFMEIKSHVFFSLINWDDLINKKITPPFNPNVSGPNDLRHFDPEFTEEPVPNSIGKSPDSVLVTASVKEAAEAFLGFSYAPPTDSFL
Briefly: Inhibition of human recombinant SGK1 at 1 uM using Ulight-RRRSLLE as substrate measured after 30 mins in presence of ATP by LANCE assay relative to control. The method in brief: as §1

Data set [14] concerns the target T4, Serine/threonine-protein kinase TAO2 (Homo sapiens) (UniProt Q9UL54).
T4 sequence (whole entry): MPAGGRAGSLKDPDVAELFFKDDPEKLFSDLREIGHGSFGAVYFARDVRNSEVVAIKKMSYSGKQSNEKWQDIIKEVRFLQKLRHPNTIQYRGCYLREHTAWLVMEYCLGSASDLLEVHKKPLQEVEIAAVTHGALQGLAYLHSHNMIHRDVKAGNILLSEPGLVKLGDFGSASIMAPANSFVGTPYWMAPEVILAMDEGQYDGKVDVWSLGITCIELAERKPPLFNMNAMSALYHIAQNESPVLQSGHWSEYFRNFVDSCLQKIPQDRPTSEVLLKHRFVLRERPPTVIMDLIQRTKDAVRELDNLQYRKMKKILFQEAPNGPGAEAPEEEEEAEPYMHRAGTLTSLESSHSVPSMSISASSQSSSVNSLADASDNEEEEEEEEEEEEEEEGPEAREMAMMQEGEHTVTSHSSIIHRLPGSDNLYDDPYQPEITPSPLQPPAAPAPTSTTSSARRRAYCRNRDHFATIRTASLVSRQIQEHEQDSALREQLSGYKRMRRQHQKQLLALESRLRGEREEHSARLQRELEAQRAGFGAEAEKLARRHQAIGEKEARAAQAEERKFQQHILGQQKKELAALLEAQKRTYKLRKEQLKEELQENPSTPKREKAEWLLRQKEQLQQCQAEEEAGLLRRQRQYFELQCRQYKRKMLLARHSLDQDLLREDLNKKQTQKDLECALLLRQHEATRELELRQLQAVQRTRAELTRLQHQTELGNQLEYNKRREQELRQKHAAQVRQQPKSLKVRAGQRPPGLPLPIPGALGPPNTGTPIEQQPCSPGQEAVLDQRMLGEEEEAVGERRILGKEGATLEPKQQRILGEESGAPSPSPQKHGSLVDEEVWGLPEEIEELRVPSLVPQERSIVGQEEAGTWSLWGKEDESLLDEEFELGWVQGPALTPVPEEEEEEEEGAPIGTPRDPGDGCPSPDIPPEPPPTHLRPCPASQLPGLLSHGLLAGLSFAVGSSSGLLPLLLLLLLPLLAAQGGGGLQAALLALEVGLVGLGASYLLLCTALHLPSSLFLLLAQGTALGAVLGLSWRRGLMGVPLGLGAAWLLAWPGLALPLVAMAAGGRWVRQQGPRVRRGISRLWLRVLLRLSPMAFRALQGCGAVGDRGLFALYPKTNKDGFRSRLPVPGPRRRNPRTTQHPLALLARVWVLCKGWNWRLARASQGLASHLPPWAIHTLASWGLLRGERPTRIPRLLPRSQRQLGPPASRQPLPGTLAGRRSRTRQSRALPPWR
Briefly: Inhibition of human recombinant TAO2 at 1 uM using Ulight-FLGFTYVAP as substrate measured after 60 mins in presence of ATP by LANCE assay relative to control. The procedure, abridged: as §1

Data set [15] concerns the target Epidermal growth factor receptor (Homo sapiens) (UniProt P00533). Briefly: Inhibition of human recombinant EGFR at 1 uM using Ulight-CAGAGAIETDKEYYTVKD as substrate measured after 15 mins in presence of ATP by LANCE assay relative to control. The method in brief: as §1
UniProt P00533, sequence (P00533 whole entry): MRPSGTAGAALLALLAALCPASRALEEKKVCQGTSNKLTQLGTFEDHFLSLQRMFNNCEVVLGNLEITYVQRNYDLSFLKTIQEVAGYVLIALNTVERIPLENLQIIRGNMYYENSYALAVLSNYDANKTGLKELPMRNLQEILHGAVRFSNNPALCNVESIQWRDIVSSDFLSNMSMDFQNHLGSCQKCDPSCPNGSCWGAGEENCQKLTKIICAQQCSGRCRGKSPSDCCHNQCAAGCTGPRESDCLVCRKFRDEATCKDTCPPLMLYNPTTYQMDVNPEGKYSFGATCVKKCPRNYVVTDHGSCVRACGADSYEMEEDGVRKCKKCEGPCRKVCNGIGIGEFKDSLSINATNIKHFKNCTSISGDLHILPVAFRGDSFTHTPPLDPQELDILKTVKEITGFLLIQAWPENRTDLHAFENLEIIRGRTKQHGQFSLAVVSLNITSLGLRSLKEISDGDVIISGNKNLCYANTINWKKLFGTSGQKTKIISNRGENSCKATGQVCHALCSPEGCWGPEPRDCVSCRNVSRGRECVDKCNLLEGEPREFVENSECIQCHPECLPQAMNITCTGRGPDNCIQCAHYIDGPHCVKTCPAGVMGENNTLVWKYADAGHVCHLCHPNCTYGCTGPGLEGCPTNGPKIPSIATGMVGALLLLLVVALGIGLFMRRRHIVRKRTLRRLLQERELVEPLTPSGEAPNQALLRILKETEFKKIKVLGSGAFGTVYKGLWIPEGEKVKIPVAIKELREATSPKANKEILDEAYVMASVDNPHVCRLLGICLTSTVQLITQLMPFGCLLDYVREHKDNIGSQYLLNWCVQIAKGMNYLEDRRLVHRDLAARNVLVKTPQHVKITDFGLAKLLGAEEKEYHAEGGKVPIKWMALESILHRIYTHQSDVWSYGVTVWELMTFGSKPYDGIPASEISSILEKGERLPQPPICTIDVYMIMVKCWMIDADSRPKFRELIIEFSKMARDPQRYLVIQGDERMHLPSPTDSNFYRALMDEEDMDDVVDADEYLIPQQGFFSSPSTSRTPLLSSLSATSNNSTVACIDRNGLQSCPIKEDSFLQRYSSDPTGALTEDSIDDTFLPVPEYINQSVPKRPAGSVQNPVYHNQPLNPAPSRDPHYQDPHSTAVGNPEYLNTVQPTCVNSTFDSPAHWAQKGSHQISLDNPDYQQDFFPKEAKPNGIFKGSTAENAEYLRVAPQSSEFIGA
Another data set deals with CYP3A4 (Homo sapiens, UniProt P08684). Briefly: Inhibition of human recombinant CYP3A4 expressed in baculovirus infected insect cells using BOMR as substrate at 10 uM in presence of NADPH by fluorimetric analysis relative to control. The conditions noted are these: probe BOMR. The data set is classed as ADME.
UniProt P08684, sequence (P08684 whole entry): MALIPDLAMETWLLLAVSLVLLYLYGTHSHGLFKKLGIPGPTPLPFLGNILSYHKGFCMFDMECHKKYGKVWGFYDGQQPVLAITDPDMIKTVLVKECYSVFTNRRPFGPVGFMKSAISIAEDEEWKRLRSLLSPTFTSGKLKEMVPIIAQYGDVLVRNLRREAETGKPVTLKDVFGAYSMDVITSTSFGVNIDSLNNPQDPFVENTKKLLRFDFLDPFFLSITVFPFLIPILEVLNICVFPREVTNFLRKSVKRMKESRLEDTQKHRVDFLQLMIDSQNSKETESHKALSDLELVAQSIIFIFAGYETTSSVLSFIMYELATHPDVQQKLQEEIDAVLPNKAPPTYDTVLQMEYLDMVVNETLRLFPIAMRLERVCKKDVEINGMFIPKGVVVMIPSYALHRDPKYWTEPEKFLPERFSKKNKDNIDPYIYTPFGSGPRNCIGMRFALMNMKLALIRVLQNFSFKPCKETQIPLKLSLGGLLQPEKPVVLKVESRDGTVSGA
For data set [16], the target named is Ephrin type-A receptor 2 (Homo sapiens) (UniProt P29317). Briefly: Inhibition of human recombinant EPHA2 at 1 uM using Ulight-TK peptide as substrate measured after 30 mins in presence of ATP by LANCE assay relative to control. The method in brief:
as §1

One compound from ChEMBL document CHEMBL4393708, “Pyridinylimidazoles as dual glycogen synthase kinase 3β/p38α mitogen-activated protein kinase inhibitors” (Eur J Med Chem, 2019) can be followed below.

UniProt P10635, sequence (P10635 whole entry): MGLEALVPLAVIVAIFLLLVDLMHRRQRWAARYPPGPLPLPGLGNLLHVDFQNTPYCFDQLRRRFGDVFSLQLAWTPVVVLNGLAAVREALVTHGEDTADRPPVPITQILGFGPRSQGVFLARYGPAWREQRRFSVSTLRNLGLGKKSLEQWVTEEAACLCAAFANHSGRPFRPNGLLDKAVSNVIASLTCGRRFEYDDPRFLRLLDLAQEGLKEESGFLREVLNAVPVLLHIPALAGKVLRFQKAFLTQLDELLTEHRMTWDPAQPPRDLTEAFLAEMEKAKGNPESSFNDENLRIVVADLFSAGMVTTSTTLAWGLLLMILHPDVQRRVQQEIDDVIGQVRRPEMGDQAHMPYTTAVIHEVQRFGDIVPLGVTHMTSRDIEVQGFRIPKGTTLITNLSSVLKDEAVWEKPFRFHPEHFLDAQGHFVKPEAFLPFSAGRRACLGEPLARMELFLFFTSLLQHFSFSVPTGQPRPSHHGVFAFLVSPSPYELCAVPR
UniProt P06239, sequence (P06239 whole entry, looked up): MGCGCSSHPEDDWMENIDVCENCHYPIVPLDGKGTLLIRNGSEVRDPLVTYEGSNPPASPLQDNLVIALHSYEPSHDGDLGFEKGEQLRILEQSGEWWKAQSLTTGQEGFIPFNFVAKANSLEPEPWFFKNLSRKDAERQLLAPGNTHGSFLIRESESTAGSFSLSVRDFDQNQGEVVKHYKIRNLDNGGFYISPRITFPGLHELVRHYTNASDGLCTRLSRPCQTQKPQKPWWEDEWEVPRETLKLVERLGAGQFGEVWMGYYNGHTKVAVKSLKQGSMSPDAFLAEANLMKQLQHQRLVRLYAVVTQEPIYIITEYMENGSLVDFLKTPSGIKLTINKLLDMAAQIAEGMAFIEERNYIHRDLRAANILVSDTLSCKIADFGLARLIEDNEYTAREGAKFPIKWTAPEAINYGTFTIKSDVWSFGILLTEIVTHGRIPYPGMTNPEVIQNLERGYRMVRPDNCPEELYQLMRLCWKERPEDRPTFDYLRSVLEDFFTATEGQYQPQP
UniProt Q9P0L2, sequence (Q9P0L2 whole entry, looked up): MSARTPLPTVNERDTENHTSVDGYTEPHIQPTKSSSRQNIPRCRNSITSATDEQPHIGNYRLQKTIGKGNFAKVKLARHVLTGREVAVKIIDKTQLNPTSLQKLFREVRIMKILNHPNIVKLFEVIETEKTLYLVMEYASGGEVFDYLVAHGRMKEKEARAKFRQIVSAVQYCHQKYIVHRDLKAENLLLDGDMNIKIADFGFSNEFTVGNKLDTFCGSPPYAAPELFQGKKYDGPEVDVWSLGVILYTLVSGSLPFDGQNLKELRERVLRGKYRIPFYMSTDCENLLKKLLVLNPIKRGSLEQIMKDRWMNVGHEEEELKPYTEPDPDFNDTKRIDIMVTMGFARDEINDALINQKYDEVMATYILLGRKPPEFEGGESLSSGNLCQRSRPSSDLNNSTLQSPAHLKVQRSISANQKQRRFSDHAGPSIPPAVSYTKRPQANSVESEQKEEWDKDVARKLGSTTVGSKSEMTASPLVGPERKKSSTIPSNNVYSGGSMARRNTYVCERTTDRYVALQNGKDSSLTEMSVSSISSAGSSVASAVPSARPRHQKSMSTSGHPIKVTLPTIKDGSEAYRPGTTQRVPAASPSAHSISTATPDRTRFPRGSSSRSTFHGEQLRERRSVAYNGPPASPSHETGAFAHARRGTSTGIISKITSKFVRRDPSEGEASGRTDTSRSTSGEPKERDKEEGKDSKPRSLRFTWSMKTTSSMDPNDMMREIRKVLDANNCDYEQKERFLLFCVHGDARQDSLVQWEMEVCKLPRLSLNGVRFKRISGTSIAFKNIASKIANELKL
UniProt O95819, sequence (O95819 whole entry, looked up): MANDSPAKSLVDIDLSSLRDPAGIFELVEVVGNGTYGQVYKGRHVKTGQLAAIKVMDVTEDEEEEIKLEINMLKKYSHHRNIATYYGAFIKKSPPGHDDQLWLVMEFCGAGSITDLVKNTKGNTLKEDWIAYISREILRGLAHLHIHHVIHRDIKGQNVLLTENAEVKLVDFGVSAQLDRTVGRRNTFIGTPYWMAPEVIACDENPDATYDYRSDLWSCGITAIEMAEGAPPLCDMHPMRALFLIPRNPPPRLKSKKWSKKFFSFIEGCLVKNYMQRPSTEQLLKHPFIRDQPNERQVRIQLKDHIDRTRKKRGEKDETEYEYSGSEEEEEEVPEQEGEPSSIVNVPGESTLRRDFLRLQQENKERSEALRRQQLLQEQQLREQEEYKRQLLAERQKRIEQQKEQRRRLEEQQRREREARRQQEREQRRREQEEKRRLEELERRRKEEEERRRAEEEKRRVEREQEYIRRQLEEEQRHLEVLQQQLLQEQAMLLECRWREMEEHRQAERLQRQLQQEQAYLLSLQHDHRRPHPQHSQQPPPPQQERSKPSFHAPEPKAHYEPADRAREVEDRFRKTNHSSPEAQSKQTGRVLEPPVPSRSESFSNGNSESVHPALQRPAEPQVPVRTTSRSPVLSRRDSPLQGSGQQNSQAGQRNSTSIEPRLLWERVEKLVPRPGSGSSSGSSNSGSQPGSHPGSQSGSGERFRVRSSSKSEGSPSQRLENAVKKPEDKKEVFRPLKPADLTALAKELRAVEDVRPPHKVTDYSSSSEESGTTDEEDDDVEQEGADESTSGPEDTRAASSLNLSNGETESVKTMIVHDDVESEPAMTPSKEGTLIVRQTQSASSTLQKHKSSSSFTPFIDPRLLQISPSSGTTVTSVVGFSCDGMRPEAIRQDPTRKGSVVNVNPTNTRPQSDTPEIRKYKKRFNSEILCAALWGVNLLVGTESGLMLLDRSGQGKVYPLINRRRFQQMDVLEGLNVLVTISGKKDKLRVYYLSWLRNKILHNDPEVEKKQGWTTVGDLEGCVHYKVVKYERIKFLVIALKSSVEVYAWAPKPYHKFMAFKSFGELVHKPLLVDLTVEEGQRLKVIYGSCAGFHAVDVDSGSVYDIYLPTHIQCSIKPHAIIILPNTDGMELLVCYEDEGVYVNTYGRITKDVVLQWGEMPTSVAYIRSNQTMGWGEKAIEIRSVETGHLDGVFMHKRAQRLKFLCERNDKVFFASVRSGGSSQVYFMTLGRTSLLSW

On to `CCc1nc(-c2ccc(F)cc2)c(-c2ccnc(NC(=O)C3CC3)c2)[nH]1`, for which the inhibition (commonly the change of the read-out against control, counted positive when it falls) at 10 µM stood at 58.3% on CYP2D6 and 75.1% at CYP3A4. Besides, the half-inhibitory concentration (IC50) (commonly the concentration needed to halve the response being measured) in the data set on Blood stood at 317 nM. The inhibition in data set [1] is 97.9%; in [2] it was 11.2%; in data set [6] it was -5.3%; in data set [7], -7.3%; in data set [8], 9.05%; in data set [10] it was 56.4%. In addition, the inhibition was 8.06% in [11]; -5.07% in data set [12]; 8.36% in [13]; 54.4% in [14]; 93.3% in data set [15]; 95.5% in [16]. For the same compound, the remaining at 10 min in data set [3] was found to be 95.4%. The remaining at 3 h in data set [4] is 98.7%. Also, in [5], the Concentration worked out at 95 ng/mL. Besides, the remaining at 0.5 h in data set [9] amounted to 93.8%.
